Out of some 420,000 compounds screened, about 64,000 (15%) were called active. This list was built around the results that the source calls inconclusive (neither active nor inactive); the mix of calls is not that of the screen. The call rests on the fitted dose curve; in most records, active means well fitted inhibition curve with a large enough effect; inconclusive means small, poorly fitted or top-dose-only effect; inactive means flat fitted curve, though single readings scatter. Potencies of inconclusive entries are left out as doubtful fits.
Assay: qHTS for Inhibitors of human tyrosyl-DNA phosphodiesterase 1 (TDP1): qHTS in cells in absence of CPT; further: nearly all actives have a fitted effect of over 55% in size
Settings: DT40 Tdp1-/- hTDP1 cells, no CPT, ATP luminescence, 48 h; activity change, negative = growth inhibition: at 46.2 µM (top of the series) unless noted
Summary of the method: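 Chicken DT40 Tdp1-/- cells complemented with human TDP1, screened without camptothecin (DMSO vehicle only), 400 cells/well. Compounds pin-transferred, cells incubated at 37 °C for at least 48 hr. Growth read as ATP-dependent luminescence (CellTiter-Glo, 30 min at RT).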
On the % scale 0 is the no-effect control and ±100 the full control effect; potency means the concentration at half of the fitted maximal effect; tags describe the fitted curve by direction and shape.

Question: Which Potency does the source give for `Cc1cc(C)cc(OCC(=O)O/N=C(\N)c2cccnc2)c1` here?
Answer: The Potency was “inactive”.

Question: Which activity change, negative = growth inhibition does the source give for `N#CCSc1ncccc1-c1nc2ccccc2[nH]1` here?
Answer: The activity change, negative = growth inhibition was inconclusive: -35.4% [inhibitor].

Question: With `O=Cc1ccc(OCc2ccc3ccccc3c2)cc1` as the molecule, how does the Potency read?
Answer: Its Potency is “inactive”.

Question: With `CC1(C)Cc2cccc(OCC(=O)N3CCN(c4ccccc4Cl)CC3)c2O1` as the molecule, how does the Potency read?
Answer: The Potency was inconclusive [inhibitor, single point].

Question: With `Cc1ccccc1CNC(=O)CN(c1ccccc1Cl)S(C)(=O)=O` as the molecule, how does the Potency read?
Answer: Its Potency is “inactive”.

Question: Which activity change, negative = growth inhibition does the source give for `CC12CCC(C/C1=N\N=C1\NC(=O)/C(=C\c3ccc(Cl)cc3)S1)C2(C)C` (stereo not given) here?
Answer: Its activity change, negative = growth inhibition is inconclusive: -34.8% [inhibitor].

Question: With `COc1ccccc1NC(=O)Nc1nc(CC(=O)Nc2ccc(F)cc2)cs1` as the molecule, how does the Potency read?
Answer: Its Potency is active: 16.4 µM.

Question: For `Cc1c(Cl)cccc1NC(=S)N1CCCN(Cc2ccc(F)cc2)C1`, which Potency is on record?
Answer: The Potency was inconclusive [inhibitor, single point].

Question: With `O=C(COC(=O)c1cc2ccccc2oc1=O)Nc1cccc(S(=O)(=O)N2CCCCCC2)c1` as the molecule, how does the Potency read?
Answer: The Potency was inconclusive [inhibitor, partial curve].

Question: Which Potency does the source give for `Cc1ccc(Nc2nnc(-c3cc4c(ccc5ccccc54)oc3=O)s2)cc1` here?
Answer: Its Potency is “inactive”.

Question: With `COc1cccc(C(=O)N2CCc3c([nH]c4ccccc34)C2c2ccc(SC)cc2)c1` (stereo not given) as the molecule, how does the Potency read?
Answer: The Potency was inconclusive [inhibitor, single point].

Question: With `Cc1ccc(S(=O)(=O)N/N=C\c2ccccc2OCc2ccccc2)cc1` as the molecule, how does the Potency read?
Answer: Its Potency is active: 18.4 µM.

Question: For `CC(=O)c1cc2c(cc1NC(=O)CN1CCCCC1C)OCO2` (stereo not given), which activity change, negative = growth inhibition is on record?
Answer: The activity change, negative = growth inhibition was inconclusive: -32.3% [inhibitor].

Question: Which Potency does the source give for `Nc1[nH]ncc1-c1ccc(Cl)cc1` here?
Answer: The Potency was inconclusive [inhibitor, single point].

Question: With `Cc1cc(C)cc(N(CC(=O)NC2CCCCC2)C(=O)CCC(=O)Nc2cc(C)ccn2)c1` as the molecule, how does the Potency read?
Answer: The Potency was “inactive”.

Question: For `Cc1ccc2c(c1)CCCN2C(=O)c1ccc2c(c1)OCO2`, which Potency is on record?
Answer: The Potency was inconclusive [inhibitor, single point].

Question: Which Potency does the source give for `Cc1nc(-c2cccc(NC(=O)c3ccc(-n4cccn4)cc3)c2)cs1` here?
Answer: Its Potency is active: 10.3 µM.

Question: With `COc1cc(CNCCc2ccc(S(N)(=O)=O)cc2)ccc1OCc1ccc(Cl)cc1` as the molecule, how does the Potency read?
Answer: Its Potency is inconclusive [inhibitor, single point].

Question: With `COC(=O)c1cc(NS(=O)(=O)c2ccc(C(C)C)cc2)ccc1N1CCOCC1` as the molecule, how does the Potency read?
Answer: The Potency was inconclusive [inhibitor, single point].

Question: For `COc1cccc(CNC(=O)CCCN2C(=O)CCn3nc(-c4cccn4C)cc32)c1`, which Potency is on record?
Answer: The Potency was “inactive”.

Question: With `Cc1ccc(S(=O)(=O)N(CC(=O)Nc2cccc([N+](=O)[O-])c2)C2CCCCC2)cc1` as the molecule, how does the Potency read?
Answer: Its Potency is inconclusive [inhibitor, single point].

Question: Which Potency does the source give for `CCOC(=O)c1c(C)[nH]c(C)c1S(=O)(=O)N1CCCCC1` here?
Answer: Its Potency is “inactive”.

Question: With `COc1ccc(CN2CCCN(C)CC2)c(OC)c1C` as the molecule, how does the Potency read?
Answer: Its Potency is inconclusive [inhibitor, partial curve, poor fit].

Question: For `O=C(NCC(=O)N(Cc1ccc(F)cc1)C(C(=O)NCC1CCCO1)c1ccccc1)c1ccco1` (stereo not given), which Potency is on record?
Answer: The Potency was “inactive”.

Question: For `O=C(NC1CCCC1)C1C(c2ccc(C(F)(F)F)cc2)=Nc2ccccc2N1C(=O)c1cccc(C(F)(F)F)c1` (stereo not given), which Potency is on record?
Answer: Its Potency is inconclusive [inhibitor, single point].

Question: For `O=C(c1cc(-c2ccccn2)nc2ccccc12)N1CCN(c2ncccn2)CC1`, which Potency is on record?
Answer: The Potency was inconclusive [inhibitor, partial curve].

Question: For `COC(=O)c1ccccc1NC(=O)CNc1cc(Cl)ccc1N1CCOCC1`, which Potency is on record?
Answer: The Potency was inconclusive [inhibitor, single point].

Question: Which Potency does the source give for `O=[N+]([O-])c1ccccc1/C=N/OCc1ccccc1` here?
Answer: Its Potency is “inactive”.

Question: With `CCC1(C)Cc2c(sc3c2c(=O)n(C)c2nnc(SCCc4ccccc4)n32)CO1` (stereo not given) as the molecule, how does the Potency read?
Answer: Its Potency is active: 23.1 µM.

Question: For `Cc1ccccc1OCc1nc(-c2ccc(-n3cccc3)cc2)no1`, which activity change, negative = growth inhibition is on record?
Answer: The activity change, negative = growth inhibition was inconclusive: -30.7% [inhibitor].

Question: For `O=C(Nc1cccc(C(F)(F)F)c1)c1cc(Br)cc(Br)c1O`, which Potency is on record?
Answer: The Potency was active: 13.3 µM.

Question: With `C=CCN(c1ccc(C(=O)Nc2ccc3c(c2)OCO3)cc1)S(C)(=O)=O` as the molecule, how does the Potency read?
Answer: The Potency was “inactive”.

Question: With `CC(C)(C)NC(=O)C(c1ccncc1)N(C(=O)C1CSC(=O)C1)c1ccccc1` (stereo not given) as the molecule, how does the Potency read?
Answer: The Potency was “inactive”.

Question: For `CCOc1ccc(CCNC(=O)c2csc3c2CCCCC3)cc1`, which Potency is on record?
Answer: Its Potency is “inactive”.

Question: With `Cc1[nH]n(-c2ccccc2)c(=O)c1N=Nc1ccccc1O` as the molecule, how does the Potency read?
Answer: The Potency was active: 0.411 µM.

Question: For `C=CCNC(=O)NC(=O)CN1C(=O)NC(c2ccccc2)(c2ccccc2)C1=O`, which Potency is on record?
Answer: The Potency was inconclusive [inhibitor, single point].

Question: With `Cc1ccc(C23CC4CC(CC(CC(=O)N5CCOCC5)(C4)C2)C3)cc1` as the molecule, how does the Potency read?
Answer: Its Potency is inconclusive [inhibitor, single point].

Question: With `CCOC(=O)c1cccc(NC(=O)Cn2c(=O)nc(-c3ccccc3F)c3cc(Cl)ccc32)c1` as the molecule, how does the Potency read?
Answer: The Potency was inconclusive [inhibitor, single point].

Question: With `Cc1nnc(N(C)C(=O)c2ccc3c(c2)OCO3)s1` as the molecule, how does the Potency read?
Answer: The Potency was “inactive”.

Question: With `CCNC(=O)C1CCCN(C(=O)c2ccc(C#N)cc2)CC1` (stereo not given) as the molecule, how does the Potency read?
Answer: The Potency was “inactive”.

Question: Which Potency does the source give for `COC(=O)c1c(N)sc(C(=O)NCCc2ccccc2)c1C` here?
Answer: The Potency was inconclusive [inhibitor, partial curve].

Question: Which Potency does the source give for `COc1ccc(S(=O)(=O)N2CCOCC2)cc1NC(=O)COC(=O)c1oc2ccccc2c1C` here?
Answer: The Potency was inconclusive [inhibitor, single point].

Question: For `CCCn1c(=O)c(C(=O)Nc2ccccc2C(=O)OCC)c(O)c2ccccc21`, which Potency is on record?
Answer: The Potency was inconclusive [inhibitor, single point].

Question: With `C[C@H](CO)NC(=O)[C@H](C)[C@@H]1C[C@@]1(C)[C@@H](NC(=O)OCc1ccccc1)c1ccccc1` as the molecule, how does the Potency read?
Answer: The Potency was inconclusive [inhibitor, partial curve].

Question: With `Cc1cccc(-n2c(SCC(N)=O)nc3c(c2=O)C2(CCCCC2)Cc2ccccc2-3)c1` as the molecule, how does the Potency read?
Answer: Its Potency is inconclusive [inhibitor, single point].

Question: Which Potency does the source give for `O=C1NC[C@@H](CCCCN2C[C@H](Cc3ccccc3)N(CCC3CCCCC3)C(=O)C2=O)N(Cc2ccccc2)C1=O` here?
Answer: Its Potency is inconclusive [inhibitor, single point].

Question: Which Potency does the source give for `CC(C)C(=O)NCCc1nc(-c2ccc(Cl)cc2)no1` here?
Answer: The Potency was “inactive”.

Question: With `CC(=O)c1ccc2c(c1)Nc1ccccc1S2` as the molecule, how does the Potency read?
Answer: Its Potency is inconclusive [inhibitor, partial curve, poor fit].

Question: For `Cc1ccc2[nH]c3c(c2c1)CN(C(=O)CN1CCCc2ccccc21)CC3`, which Potency is on record?
Answer: The Potency was inconclusive [inhibitor, single point].

Question: With `Cc1ccc(CNc2ncnc3c2nc2n3CCCC2)cc1` as the molecule, how does the Potency read?
Answer: The Potency was inconclusive [inhibitor, single point].

Question: For `COc1ccc(/C(C)=N/OCC(=O)N=Nc2c(O)[nH]c3ccccc23)cc1`, which Potency is on record?
Answer: Its Potency is inconclusive [inhibitor, full curve].

Question: With `OC(CNCc1ccccc1Cl)COc1ccc(F)cc1` (stereo not given) as the molecule, how does the Potency read?
Answer: Its Potency is inconclusive [inhibitor, single point].

Question: With `Cc1ccc2nc(CSc3nnc(NC(=O)c4cccc(Br)c4)s3)cc(=O)n2c1` as the molecule, how does the Potency read?
Answer: Its Potency is “inactive”.

Question: Which Potency does the source give for `O=C(Cn1c(=O)n2ncnc2c2c3c(sc21)CCCC3)c1ccccc1` here?
Answer: The Potency was inconclusive [inhibitor, single point].

Question: With `CC1CCCCC1NC(=O)CCc1nc2sc3c(c2c(=O)[nH]1)CCCC3` (stereo not given) as the molecule, how does the Potency read?
Answer: Its Potency is inconclusive [inhibitor, partial curve, poor fit].

Question: Which Potency does the source give for `CCOC(=O)c1ccc(NC(=O)CN2c3ccccc3S(=O)(=O)c3ccccc32)cc1` here?
Answer: Its Potency is inconclusive [inhibitor, single point].

Question: Which Potency does the source give for `CC1(C)Cc2cccc(OCC(=O)NCCc3ccccc3)c2O1` here?
Answer: Its Potency is inconclusive [inhibitor, single point].

Question: Which Potency does the source give for `CCN(C(=O)CSc1nc2ccccc2n1CC(=O)NCc1ccc(OC)cc1)c1ccccc1` here?
Answer: Its Potency is active: 23.1 µM.

Question: For `Cc1cccc(CN2CCN(C3CN(Cc4cn(Cc5ccccc5)nn4)S(=O)(=O)C3)CC2)c1` (stereo not given), which Potency is on record?
Answer: The Potency was inconclusive [inhibitor, single point].

Question: With `COc1ccc(C#Cc2cnc3c(c2)C(=O)N([C@H](C)CO)C[C@@H](C)[C@H](CN(C)C(=O)CN(C)C)O3)cc1` as the molecule, how does the Potency read?
Answer: The Potency was “inactive”.

Question: Which Potency does the source give for `O=c1[nH]c(CSc2nnc(Nc3ccccc3)s2)nc2ccccc12` here?
Answer: Its Potency is “inactive”.

Question: Which Potency does the source give for `CC(=O)N1N=C(c2ccc(Br)cc2)CC1c1cn(C)c2ccccc12` (stereo not given) here?
Answer: The Potency was inconclusive [inhibitor, single point].

Question: With `CC#CCN(Cc1ccco1)C(=O)c1ccc(OC2CCN(Cc3ccccn3)CC2)cc1` as the molecule, how does the Potency read?
Answer: Its Potency is inconclusive [inhibitor, single point].

Question: Which Potency does the source give for `COc1cccc(C=NN(C)c2c([N+](=O)[O-])cc(C(F)(F)F)cc2[N+](=O)[O-])c1O` here?
Answer: The Potency was inconclusive [inhibitor, single point].

Question: Which Potency does the source give for `COc1ccc(S(=O)(=O)N2CCN(C/C=C/c3ccccc3)CC2)cc1F` here?
Answer: Its Potency is inconclusive [inhibitor, single point].

Question: With `O=C(Cc1ccccc1F)Nc1nc(-c2ccc(F)c(F)c2)cs1` as the molecule, how does the Potency read?
Answer: Its Potency is active: 2.06 µM.

Question: With `Cc1ccc2ccccc2c1C(O)c1ncc(-c2ccc(C(F)(F)F)cc2)[nH]1` (stereo not given) as the molecule, how does the Potency read?
Answer: Its Potency is inconclusive [inhibitor, single point].

Question: For `CCOc1ccc2c(c1)C(c1ccc(C)cc1)=NNC(c1ccc(C)cc1)=N2`, which Potency is on record?
Answer: Its Potency is inconclusive [inhibitor, single point].

Question: For `C[C@H](NC(=O)c1ccccc1Cl)C(=O)Nc1ccccc1F`, which Potency is on record?
Answer: Its Potency is “inactive”.

Question: For `CCOC(=O)N1CCC(NC(=O)c2ccc3c(c2)N(Cc2ccc(C)cc2)CCS3)CC1`, which Potency is on record?
Answer: The Potency was active: 20.6 µM.
